This note sets out measurements from the supplement of paper PMC11417369.

± gives the standard deviation of the averaged measurements. This is one part of the list.

The subject of the test is PfAP2-I AP2 domain 3 (GST-tagged). Nature of the test: gcPBM binding intensity (ln(normalized median fluorescence intensity)); higher = stronger DNA binding. The gist of the method: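 DNA-binding domains from P. falciparum, fused to GST and produced in E. coli, were put on an Agilent 4 × 180k double-stranded probe array for 1 h in 1× PBS holding 1% milk, 0.2 mg/ml BSA, 0.5% salmon testes DNA and 0.03% Triton X-100. Probes were primer-extended, 36 bp long and drawn from intergenic genomic regions, with negative controls included. After Alexa488 anti-GST antibody detection and a 488 nm scan, binding intensity was set as the highest Masliner-normalised natural-log median intensity across replicate spots of either probe orientation.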
In the case of “TTTCTTTGAATAAATACACACGAGAAATGAAAGTAG [CACACA_site8490]”, the “gcPBM binding intensity (ln)” value is 8.38 ± 0.6.
Consider “GCAAAATTTCCTAAGGTGCTTTTATTTTACACCGTT [GTGCAC_site9923]”, for which the “gcPBM binding intensity (ln)” value is 10 ± 0.42.
The result for “AATGGGTTAGCACATACACACCAATATATTATAGAT [CACACA_site7444]” reads 7.89 ± 0.59; that for “CTTTTATTGCTCTATATGCACACCTTAATTCTTCAT [CACACA_site2195]”, 9.74 ± 0.19; that for “TTTATTACCATATTTTGTACACACATCTTTATCTCA [XGTACX_site6842]”, 8.26 ± 0.74.
For “TTAAATAGCTGTAATTGTACAAATAAATACATAAAT [XGTACX_site3097]”, the “gcPBM binding intensity (ln)” value was found to be 7.82 ± 0.54.
The result for “TATAGTAATATTTGAAGTACAAAATTAAAATAAATA [XGTACX_site7634]” reads 7.71 ± 0.54.
In the case of “TTATATAAGGTCTATATATAAATATTAATGATAAGG [TGCATGCA_negctrl_site354]”, the “gcPBM binding intensity (ln)” value came to 7.75 ± 0.46.
Consider “TTAATATTTTGATGTGTACACATTAAAATAGTTTTA [CACACA_site5712]”, for which the “gcPBM binding intensity (ln)” value came out at 7.7 ± 0.47.
On to “TAAATATATATATGGTGTACCATTTTGGGTTAATAT [XGTACX_site2706]”, for which the “gcPBM binding intensity (ln)” value came out at 7.91 ± 0.47.
On to “GGGAGGATATTTCACAGTACCCAGGAAATCTGCGGA [XGTACX_site2555]”, for which the “gcPBM binding intensity (ln)” value was 8.09 ± 0.5.
As to “TATATTATTTTTTATTGTACTTAAAAATATTATTTG [XGTACX_site1443]”, the “gcPBM binding intensity (ln)” value came to 7.7 ± 0.15.
“AGAAGTTTATCTTTTAGTACGCATAAAAAAAAAAAA [XGTACX_site2359]”: the “gcPBM binding intensity (ln)” value amounted to 8.03 ± 0.49.
The result for “TATAAATAATTATATTGTACTCTTTATATTTTTCTT [XGTACX_site5335]” reads 7.74 ± 0.49.
With “AAGGAAATAATTAAATGTACAAAAAAAAAAAAAATT [XGTACX_site562]”, the “gcPBM binding intensity (ln)” value was 7.62 ± 0.46.
The result for “TACAAACAAACACATAGCAATATATGTTATCAAAAA [XGTACX_negctrl_site1]” reads 7.41 ± 0.69; that for “TTTTATGCTCAATTATTAAGAAATACTTTTTCTTCC [XGTACX_negctrl_site208]”, 7.7 ± 0.71; that for “ATATTTTTTTTTCTTTCGCACACGTGAAAGAATTTC [CACACA_site8636]”, 8.46 ± 0.51.
The result for “AAAATAAAAATTAACTGTACATACATTATTCAAATT [XGTACX_site6106]” reads 7.59 ± 0.6; that for “TCCTTATTTTGCAGGAGTACCATTTTTTAAAAATAC [XGTACX_site5968]”, 8.61 ± 0.74; that for “ACAATTACTTATTTTAATTTTTTTAATCTATTGATT [CACACA_negctrl_site967]”, 7.45 ± 0.64.
As to “AATAACAATTATAAAAGTACAGATTTTTATTTCTAA [XGTACX_site5746]”, the “gcPBM binding intensity (ln)” value is 7.38 ± 0.45.
To “TTTTTTTTGTTATGAACATGCAAATTAAAATATAAT [TGCATGCA_site954]” belongs 7.83 ± 0.59; to “TAAATACATAAAAATTGTACACATTGTTTTCTCTTT [XGTACX_site6435]”, 7.74 ± 0.29.
Consider “TACTTTTCTTAAAGATGTACGTTTTAAAAATAAAAT [XGTACX_site14]”, for which the “gcPBM binding intensity (ln)” value was 7.81 ± 0.2.
Regarding “CAACAATTTCGTCATACACACATTCAGAATATATAT [CACACA_site2370]”, the “gcPBM binding intensity (ln)” value was found to be 7.75 ± 0.52.
With “TGAACTCATAGGAAAACACACATATGTGCAATATAT [CACACA_site6231]”, the “gcPBM binding intensity (ln)” value was determined as 10.8 ± 0.54.
The result for “ACAATGATAGTGTAAAGTACATATATATAAAAAAAT [XGTACX_site5928]” reads 8.11 ± 0.69.
With “TGTTATTATTAAGACACACACACAAAAAAAAAAAAA [CACACA_site1481]”, the “gcPBM binding intensity (ln)” value turned out to be 8.12 ± 0.56.
The result for “TTTATAATATGTTATACATGCAGGTACCTTTTTGTA [TGCATGCA_site746]” reads 7.76 ± 0.71; that for “ATTTATAATTTTTGAGCACACACAAGCATATATATA [CACACA_site8531]”, 8.33 ± 0.52; that for “TTGTTCATCTTTTTTTTTTTTTTTTTTTTTTAAATC [CACACA_negctrl_site191]”, 7.42 ± 0.53.
Consider “TTTCAATGTGACACGTGTCCGTAAAATTACATAATT [XGTACX_site7073]”, for which the “gcPBM binding intensity (ln)” value came out at 7.92 ± 0.57.
Consider “ATTAATAAAAGATAAAGTACAAATCGGAAAATGAAT [XGTACX_site7846]”, for which the “gcPBM binding intensity (ln)” value was 7.87 ± 0.73.
As for “AAGATTAAACATTGCACACAGAAATATATTTTCTAT [CACACA_site2374]”, the “gcPBM binding intensity (ln)” value came to 8.64 ± 0.3.
In the case of “AATAATATATAAGAAAGTACAAAAAAATAAAATAAA [XGTACX_site3302]”, the “gcPBM binding intensity (ln)” value turned out to be 7.77 ± 0.67.
Turning to “AAAAAGAAAAAACTTACACACATATATACACCCATG [CACACA_site8079]”, the “gcPBM binding intensity (ln)” value was 7.9 ± 0.38.
Regarding “ATATCAAATAGACAAACACACAAAGGAAGAGTGAAA [CACACA_site3921]”, the “gcPBM binding intensity (ln)” value was found to be 7.7 ± 0.83.
Consider “TTCTTTTTTTTTTTTTTTTTTTTATAGTACAAAAAA [TGCATGCA_negctrl_site450]”, for which the “gcPBM binding intensity (ln)” value turned out to be 7.95 ± 0.18.
Regarding “ATCTATATTATTTCTACACACATATCTATAATATGT [CACACA_site7561]”, the “gcPBM binding intensity (ln)” value was found to be 7.85 ± 0.72.
Take “TTTTTTTTTTTGTGTGCATGTGCTAGGAAAGGTAGG [TGCATGCA_site330]”: the “gcPBM binding intensity (ln)” value is 8.85 ± 0.11.
On to “TTTCTATTACGAACGTGTACATACATTATTCTTAAA [XGTACX_site5816]”, for which the “gcPBM binding intensity (ln)” value was determined as 8.35 ± 0.24.
As to “TAGAAAAAAATAGATGCATGCAATGAATGAATAATA [TGCATGCA_site14]”, the “gcPBM binding intensity (ln)” value turned out to be 8.29 ± 0.9.
As for “ATATATTTTGGGGACTTTTTAAAAAAGAAGTATTAA [TGCATGCA_negctrl_site337]”, the “gcPBM binding intensity (ln)” value stood at 7.91 ± 0.51.
